Assay results: PubChem BioAssay AID624417 (National Center for Advancing Translational Sciences (NCATS), 2012)
Among all 410,000 compounds or so, about 6,400 (1.6%) were called active. Inconclusive results, whose numbers are uncertain, are shown with a selection of clear calls. Calls follow the shape of the dose curve; as a rule, active = well fitted inhibition curve with a large enough effect; inconclusive = small, poorly fitted or top-dose-only effect; inactive = no such curve, though single readings can be large or run the other way. Potencies of inconclusive entries are left out as doubtful fits.
% is scaled to controls: 0 for no effect and ±100 for the full control effect; potency is read from the fitted curve at half-maximal effect; tags tell the direction and shape of the fitted curve.
Also: nearly all actives have a fitted effect of over 55% in size.

Each molecule was assayed against Glucagon-like peptide 1 receptor (Homo sapiens) (UniProt P43220) (assay: qHTS of GLP-1 Receptor Inverse Agonists (Inhibition Mode)). Settings: HEK293 GLP-1R CRE-luciferase, luminescence, 24 h, GLP-1R form is constitutively active; activity change, negative = inhibition: at 38.3 µM (top of the series) unless noted.
Sequence of UniProt P43220 (P43220 whole entry, looked up): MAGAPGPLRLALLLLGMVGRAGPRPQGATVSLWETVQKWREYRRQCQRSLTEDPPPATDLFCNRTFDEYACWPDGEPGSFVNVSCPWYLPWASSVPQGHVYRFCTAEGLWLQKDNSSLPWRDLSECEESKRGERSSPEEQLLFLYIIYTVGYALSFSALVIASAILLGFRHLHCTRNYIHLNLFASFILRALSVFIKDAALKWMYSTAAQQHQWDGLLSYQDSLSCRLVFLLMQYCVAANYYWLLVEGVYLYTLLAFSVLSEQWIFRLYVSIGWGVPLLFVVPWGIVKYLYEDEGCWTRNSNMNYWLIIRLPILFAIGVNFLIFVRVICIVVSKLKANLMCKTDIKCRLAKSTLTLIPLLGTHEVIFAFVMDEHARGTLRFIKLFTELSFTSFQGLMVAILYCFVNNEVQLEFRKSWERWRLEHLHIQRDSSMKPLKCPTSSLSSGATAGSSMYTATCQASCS
How it was run: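 Seeding at 200 cells/uL, 12 h culture, 24 hr compound treatment, then luciferase reagent and a luminescence read; cells are HEK293 stably expressing a constitutively active GLP-1R plus cAMP-responsive luciferase.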
For `CCN(c1cccc(C)c1)S(=O)(=O)c1ccc2c(c1)N(C(C)=O)CCS2`, the Potency was inconclusive [inhibitor, single point]. In the case of `O=C(c1ccc(Sc2cccc(Cl)c2)c([N+](=O)[O-])c1)N1CCN(c2ccccn2)CC1`, the Potency is reported as inconclusive [inhibitor, partial curve, poor fit]. For `CCOc1ccc(C(=O)Nc2nnc(SCC(=O)NCC3CCCO3)s2)cc1` (configuration not stated), the Potency was active: 2 µM. For `CSc1ccc(OC2(C)CCN(Cc3ccc(-c4ccccn4)cc3)C2)cc1` (configuration not stated), the “activity change, negative = inhibition” value was inactive: -16.2%. For `O=C(Nc1ccccc1C(=O)NCc1ccccc1)c1ccco1`, the Potency was inconclusive [inhibitor, single point]. For `CCN(CC)C(=O)CC(c1ccc(F)cc1)c1ccc(OC)cc1` (configuration not stated), the Potency was inconclusive [inhibitor, single point]. With `COc1cccc(CC(O)CC2c3c(cc4c(c3OC)OCO4)CCN2C)c1` (configuration not stated) the Potency was inconclusive [inhibitor, single point]. With `CC(C)(C)OC(=O)N1CCC[C@H]1c1nnc(SCc2ccccc2Cl)o1` the Potency was inconclusive [inhibitor, partial curve]. With `COc1cccc(C(=O)NC2CC(C)(C)Cc3c2cnn3-c2cccc(F)c2)c1OC` (configuration not stated) the Potency was inconclusive [inhibitor, single point]. With `CC1(c2ccc(Cl)cc2)NC(=O)N(CC(=O)Nc2ccc(F)cc2)C1=O` (configuration not stated) the Potency was inconclusive [inhibitor, partial curve, poor fit]. `C/C(=N\Nc1nncc2ccccc12)c1ccc(C(C)(C)C)cc1` was tested, and the “activity change, negative = inhibition” value was inactive: 4.87%. With `Cc1nnc(SC(=O)N2c3ccccc3Sc3ccccc32)s1` the Potency was inconclusive [inhibitor, partial curve, poor fit]. For `Cc1ccc(NC(=O)CCCc2nc3ccccc3s2)c(O)c1`, the Potency was inconclusive [inhibitor, single point]. `CC1CCc2nc(NC(=O)C3COc4ccccc4O3)sc2C1` (configuration not stated) was tested, and the Potency was inconclusive [inhibitor, partial curve, poor fit]. In the case of `CC(C)(O)C#Cc1ccc(CN2CCN(CCc3ccccc3)C(CCO)C2)s1` (configuration not stated), the Potency is reported as inconclusive [inhibitor, partial curve, poor fit]. For `O=C(Nc1ccc(Oc2cccc3ccccc23)cc1)c1ccco1`, the Potency was inconclusive [inhibitor, partial curve, poor fit]. In the case of `CCc1ccc(-c2n[nH]nc2C2=CC(=O)C[C@H](c3ccc(F)cc3)C2)cc1`, the Potency is reported as active: 8.91 µM. `COc1cc(NS(=O)(=O)c2ccc(NC(=S)NC(=O)c3ccco3)cc2)ncn1` was tested, and the “activity change, negative = inhibition” value was inactive: 1.91%. With `CCCCSc1ncc(C(=O)OCC)c(N)n1` the Potency was inconclusive [inhibitor, single point]. With `Cc1ccc(NC(=O)Cn2c(=O)n(Cc3ccc(F)cc3)c(=O)c3cccnc32)cc1C` the “activity change, negative = inhibition” value was inactive: 4.52%. `COc1ccc(CCNC(=O)c2cc(Nc3ccccc3)nc3ccccc23)cc1OC` was tested, and the “activity change, negative = inhibition” value was inactive: -38.8%. In the case of `CCCCNC(=O)c1onc(CSc2ccccc2)c1C(=O)O`, the Potency is reported as inconclusive [inhibitor, single point]. With `Cc1cccc(C)c1NC(=O)C(NC(=O)c1ccccn1)c1ccccc1[N+](=O)[O-]` (configuration not stated) the Potency was inconclusive [inhibitor, single point]. With `O=C(N/N=C/c1cc([N+](=O)[O-])ccc1O)c1ccc2c(c1)OCCO2` the Potency was inconclusive [inhibitor, full curve, poor fit]. `O=C(O)CC1=C(Nc2ccccc2)C(=O)N(c2ccccc2)C1c1ccc(F)cc1` (configuration not stated) was tested, and the Potency was inconclusive [inhibitor, single point]. With `CON/C=N/C(=S)Nc1ncc(C(F)(F)F)cc1Cl` the Potency was inconclusive [inhibitor, full curve, poor fit]. In the case of `O=S(=O)(NCCc1csc(-c2cccc(F)c2)n1)c1cc(F)ccc1F`, the Potency is reported as inconclusive [inhibitor, single point]. In the case of `N#CC(C#N)=NNc1ccc(S(=O)(=O)N2CCCCC2)cc1`, the Potency is reported as active: 1.26 µM. In the case of `Cc1nn(Cc2ccc(Cl)c(Cl)c2)c(C)c1NC(=O)c1cc(-c2ccc3c(c2)OCO3)on1`, the Potency is reported as inconclusive [inhibitor, partial curve, poor fit]. With `CS(=O)(=O)Nc1cccc2cccnc12` the Potency was inconclusive [inhibitor, single point]. For `O=C(N[C@@H](Cc1c[nH]c2ccccc12)C(=O)NC1CC1)c1ccccc1Cl`, the Potency was inconclusive [inhibitor, partial curve, poor fit]. For `C/C(=N\NC(=O)c1cccnc1)c1ccc(OC2OCCOC2Oc2ccc(/C(C)=N/NC(=O)c3cccnc3)cc2)cc1` (configuration not stated), the Potency was inconclusive [inhibitor, single point]. For `Cc1ccsc1/C=N/NC(=O)CN1CCN(Cc2ccccc2)CC1`, the Potency was inconclusive [inhibitor, partial curve, poor fit]. For `COc1ccc(N(C(=O)Cn2nnc(-c3ccc(F)cc3)n2)C(C)C(=O)NC2CCCC2)cc1` (configuration not stated), the Potency was inconclusive [inhibitor, single point]. For `COc1ccccc1NC(=O)C(Sc1ccccc1)c1ccccc1` (configuration not stated), the Potency was inconclusive [inhibitor, single point]. `CCOC(=O)c1sc2nccc(N(C)C)c2c1N=CNOCc1ccccc1` was tested, and the Potency was inconclusive [inhibitor, partial curve, poor fit]. In the case of `COc1ccc(Cn2c(-c3ccc(OC)cc3)nc3ccccc32)cc1`, the “activity change, negative = inhibition” value is reported as inactive: -1.11%. `CC(C)CC(C(=O)NC(C)(C)C)N(Cc1ccccc1Cl)C(=O)c1snc(C(N)=O)c1N` (configuration not stated) was tested, and the Potency was inconclusive [inhibitor, single point]. For `O=C(CCN1C(=O)/C(=C/c2cccs2)SC1=S)NNC(=O)c1cccc(O)c1`, the activity change, negative = inhibition was inactive: -10.3% [at 7.66 µM]. In the case of `OCCNc1nc(Nc2cccc(O)c2)nc2ccccc12`, the Potency is reported as inconclusive [inhibitor, single point]. In the case of `O=C(CSc1nc(-c2cccs2)cc(C(F)(F)F)n1)Nc1cc(OCC(F)(F)C(F)F)cc([N+](=O)[O-])c1`, the Potency is reported as inconclusive [inhibitor, full curve, poor fit]. In the case of `CCOC(=O)[C@]12CCC=C1N(CCC1=CCCCC1)C(=O)[C@H](CC(=O)NCc1ccc(C)o1)C2`, the “activity change, negative = inhibition” value is reported as inactive: 14%. `CCOc1cc(/C=N/NC(=O)c2cc3c(ccc4ccccc43)o2)ccc1O` was tested, and the Potency was inconclusive [inhibitor, single point]. For `CC1CC(C)CN(CCOc2cccc(Cl)c2Cl)C1` (configuration not stated), the “activity change, negative = inhibition” value was inactive: -16.8%. `COc1ccc(CN2CCN(Cc3ccc(Br)cc3)CC2)c(OC)c1OC` was tested, and the Potency was inconclusive [inhibitor, partial curve, poor fit]. With `C/C(=N\Nc1nc(N2CCCCCC2)nc(N2CCCCCC2)n1)c1ccccc1` the Potency was inconclusive [inhibitor, partial curve]. `CCOC(=O)C1CCN(S(=O)(=O)c2ccc(-c3cc(C(F)(F)F)n(C)n3)s2)CC1` was tested, and the Potency was inconclusive [inhibitor, single point]. For `O=C(NCC1COc2ccccc2O1)C1CCN(S(=O)(=O)c2ccc(Cl)cc2)CC1` (configuration not stated), the Potency was inconclusive [inhibitor, partial curve]. With `C[C@@H]1CC[C@H](Cc2ccc(-n3cccc3)cc2)N1C(=O)OC(C)(C)C` the Potency was inconclusive [inhibitor, single point]. `Cc1cccc(NC(=O)CSCC(=O)N(C)CC(=O)Nc2cccc(F)c2)c1` was tested, and the Potency was inconclusive [inhibitor, single point]. With `Cc1ccc(C2=NC(C)(C)N=C2SCC(=O)Nc2ccc(Cl)cc2)cc1` the Potency was inconclusive [inhibitor, partial curve, poor fit]. With `COc1ccc(C(=O)CC(=O)C(=O)NCCc2cccc(C)c2)cc1` the Potency was inconclusive [inhibitor, partial curve]. In the case of `O=C1[C@H]2[C@@H](c3ccc(F)cc3)N3C(=O)N(c4cccc(Cl)c4)C(=O)[C@@]3(Cc3ccccc3)[C@H]2C(=O)N1C1CCCCC1`, the Potency is reported as active: 5.62 µM. In the case of `CCOC(=O)c1c(NC(=O)CN2CCCc3ccccc32)sc(C)c1CC`, the Potency is reported as inconclusive [inhibitor, single point]. With `Oc1ccccc1-c1nc2cnccn2c1Nc1ccc(Cl)cc1` the Potency was inconclusive [inhibitor, single point]. For `COc1ccc(CNC(=O)CN2C(=O)COc3ccccc32)c(OC)c1`, the “activity change, negative = inhibition” value was inactive: 12.8%. In the case of `COc1ccc(Cl)cc1C(=O)Nc1nc2ccccc2[nH]1`, the Potency is reported as inconclusive [inhibitor, full curve, poor fit]. In the case of `O=C(Cc1ccc(S(=O)(=O)N2CCOCC2)s1)N1CCN(S(=O)(=O)c2ccc(Cl)cc2)CC1`, the Potency is reported as inconclusive [inhibitor, partial curve]. For `O=C(CCCNC(=O)/C(=C\c1ccc(F)cc1)NC(=O)c1ccccc1)OCc1ccccc1`, the Potency was inconclusive [inhibitor, single point]. For `O=C(NCC1CCCO1)c1ccc([N+](=O)[O-])s1` (configuration not stated), the “activity change, negative = inhibition” value was inactive: 12.3%. For `FC(F)(F)C(Oc1nc(NC2CCCCC2)nc(N2CCOCC2)n1)C(F)(F)F`, the Potency was inconclusive [inhibitor, single point]. With `Cc1cc(C)c(NC(=O)Cn2c(=O)n(Cc3ccco3)c(=O)c3ccccc32)c(C)c1` the Potency was inconclusive [inhibitor, single point].
